Among all 410,000 compounds or so, about 850 (0.21%) were called active. The inconclusive results got no clear call from the source; some entries with a clear call stand among them for comparison. Calls follow the shape of the dose curve; as a rule, active = well fitted inhibition curve with a large enough effect; inconclusive = small, poorly fitted or top-dose-only effect, or another doubt; inactive = no such curve, though single readings can be large or run the other way. No potency is given beside an inconclusive call; the fits are too rough.
Molecular target: Glutaminase kidney isoform, mitochondrial (Homo sapiens) (UniProt O94925)
Chain of UniProt O94925 (O94925 whole entry, looked up, canonical isoform): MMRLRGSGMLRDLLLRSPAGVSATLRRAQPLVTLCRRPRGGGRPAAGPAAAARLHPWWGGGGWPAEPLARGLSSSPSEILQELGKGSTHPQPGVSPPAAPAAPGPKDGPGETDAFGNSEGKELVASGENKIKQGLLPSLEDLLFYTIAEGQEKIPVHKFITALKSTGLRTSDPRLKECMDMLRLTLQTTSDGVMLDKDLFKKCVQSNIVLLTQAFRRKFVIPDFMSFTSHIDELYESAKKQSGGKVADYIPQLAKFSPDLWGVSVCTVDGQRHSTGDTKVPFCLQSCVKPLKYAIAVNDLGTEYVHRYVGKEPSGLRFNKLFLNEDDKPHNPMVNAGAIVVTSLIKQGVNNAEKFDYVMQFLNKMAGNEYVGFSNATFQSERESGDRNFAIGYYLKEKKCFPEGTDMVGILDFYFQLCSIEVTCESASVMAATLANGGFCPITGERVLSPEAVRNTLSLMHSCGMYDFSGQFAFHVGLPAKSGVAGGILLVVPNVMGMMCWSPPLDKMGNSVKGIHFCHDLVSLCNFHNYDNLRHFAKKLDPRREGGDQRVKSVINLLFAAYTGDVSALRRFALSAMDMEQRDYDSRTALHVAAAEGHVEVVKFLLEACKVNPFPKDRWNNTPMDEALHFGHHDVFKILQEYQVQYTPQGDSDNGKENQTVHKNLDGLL
Assay: qHTS for Inhibitors of Glutaminase (GLS)
Settings: GLS enzymatic activity, qHTS titration; series mostly up to 45.5 µM
Outline: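 Two-point fluorescence kinetic (t0, 30 min RT) for hKGA; glutamate detected via glutamate oxidase–HRP–Amplex Red. Substrate: 1 mM L-glutamine solution; buffer 45 mM KH2PO4, pH 8.2.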
Potency is read from the fitted curve at half-maximal effect; tags tell the direction and shape of the fitted curve.

SMILES | Potency
CCn1nc([N+](=O)[O-])c(C(C#N)c2nc3ccccc3n2C)c(Cl)c1=O (stereo not drawn) | inactive
CCC(=O)NC(c1cccs1)c1cc([N+](=O)[O-])c2cccnc2c1OC (stereo not drawn) | inconclusive [inhibitor, single point]
CC(=O)c1ccc(N2CCN(c3ncccn3)CC2)c([N+](=O)[O-])c1 | inactive
N#CC(C#N)=Cc1cc2ccccc2nc1N1CCCCC1 | inconclusive [inhibitor, single point]
COCCSc1nnc(NC(=O)CS(=O)(=O)c2ccc(C)cc2)s1 | inactive
COc1cc(/C=C2/C(=O)N(c3ccc([N+](=O)[O-])cc3)N=C2N2CCOCC2)ccc1O | inconclusive [inhibitor, single point]
CN1C(=O)NC2(O)C(=O)c3ccccc3C12O (stereo not drawn) | inconclusive [inhibitor, single point]
Cc1c(C(=O)NN2CCOCC2)oc2ccccc12 | inconclusive [inhibitor, single point]
CC(C)Cc1ccc(C(C)C(=O)Nc2ccccc2O)cc1 (stereo not drawn) | inconclusive [inhibitor, partial curve]
CCCC(c1nnnn1CCOC)N1CCN(c2nc3ccccc3s2)CC1 (stereo not drawn) | inconclusive [inhibitor, single point]
COc1ccc(-c2nnc(SCC(=O)NNC(=O)Cc3ccccc3)n2C)cc1OC | inconclusive [inhibitor, single point]
COc1ccccc1CCc1nnc(CCC(=O)NC(C)Cc2cccs2)o1 (stereo not drawn) | inactive
COCCCNC(=O)c1cc2cc(Br)ccc2oc1=O | inactive
N#Cc1ccc(C2N=C(c3ccccc3)NO2)cc1 (stereo not drawn) | inconclusive [inhibitor, single point]
Cn1nnnc1Sc1ncnc2scc(-c3ccccc3C(F)(F)F)c12 | inconclusive [inhibitor, single point]
Cc1ccc(S(=O)(=O)NCC(c2ccccc2)N2CCN(c3ccc(F)cc3)CC2)cc1 (stereo not drawn) | inactive
C=C(NCc1ccccc1)c1ccccc1O | inactive
C=CCN1C(=O)/C(=c2\sc3nc(=O)c(Cc4ccccc4)nn3c2=O)c2ccccc21 | inconclusive [inhibitor, single point]
COc1ccc(-c2csc(NC(=O)CSc3n[nH]c(N)n3)n2)cc1 | inconclusive [inhibitor, partial curve]
N#Cc1c(/N=C/C=C/c2ccccc2)sc2c1CCCC2 | inconclusive [inhibitor, single point]
O=C(NC1CC1)C1CC(=O)N(c2ccccc2)C1 (stereo not drawn) | inconclusive [inhibitor, single point]
CCCCN1C(=O)/C(=C2\SC(N3CCCCC3)=NC2=O)c2ccccc21 | inactive
O=c1[nH]c2ccc(NC(=S)Nc3ccccc3)cc2[nH]1 | inconclusive [inhibitor, single point]
Cc1ccc(CNC(=O)C2CC(c3cccc([N+](=O)[O-])c3)=NO2)o1 (stereo not drawn) | inactive
Cn1c(=O)c2c(nc3n2CC(O)CN3c2ccc(O)cc2)n(C)c1=O (stereo not drawn) | inconclusive [inhibitor, partial curve]

SMILES | Potency
COc1ccc(C2C(C#N)=C(N)Oc3c2c(-c2ccccc2)nn3-c2ccccc2)c(OC)c1OC (stereo not drawn) | inactive
COc1ccc(CN=CC2=C(O)CNC2=O)cc1 | inactive
Cc1ccccc1N=Nc1ccc(O)c2ncccc12 | inactive
COc1ccc(-c2nnc(OCc3nc4ccccc4n3C)c3ccccc23)cc1 | inconclusive [inhibitor, single point]
Cc1[nH]c2ccccc2c1/C=N/NC(=S)NC(C)C | inconclusive [inhibitor, partial curve]
CN(C)c1ccc(CNS(=O)(=O)c2csc(C(N)=O)c2)cc1 | inconclusive [inhibitor, single point]
Cc1ccc(NC(=O)c2cc(N3C(=O)C4CCCCC4C3=O)ccc2N2CCOCC2)cc1 (stereo not drawn) | inactive
O=C1C(=O)N(c2ccc(O)cc2)C(c2ccccc2[N+](=O)[O-])/C1=C(\O)c1ccccc1 (stereo not drawn) | inconclusive [inhibitor, single point]
CSCCC(NC(=O)COc1ccccc1)C(=O)N(C)Cc1ccc(SC)cc1 (stereo not drawn) | inactive
COc1ccc(NC(=O)c2ccccc2NC(=O)C2CCCCC2C(=O)O)cc1 (stereo not drawn) | inactive
COCCCNC(=O)C(C)N1c2cccc3cccc(c23)S1(=O)=O (stereo not drawn) | inconclusive [inhibitor, single point]
O=C(OCC1OC(n2ncc(=O)[nH]c2=O)C(OC(=O)c2ccccc2)C1OC(=O)c1ccccc1)c1ccccc1 (stereo not drawn) | inactive
COC(=O)c1ccc(/C=C2/C(=O)Oc3ccccc32)cc1 | inconclusive [inhibitor, partial curve, poor fit]
N#CC(C(=O)c1ccc(S(=O)(=O)N2CCCCCC2)cc1)c1nc2ccccc2[nH]1 (stereo not drawn) | inconclusive [inhibitor, single point]
Nc1nc2c(ncn2[C@@H]2O[C@H](CNS(=O)(=O)N3CCc4ccccc4C3)[C@@H](O)[C@H]2O)c(=O)[nH]1 | inconclusive [inhibitor, single point]
CCOC(=O)N1CCc2c(sc3[nH]c(=S)[nH]c(=S)c23)C1 | inconclusive [inhibitor, single point]
Cc1ccc(C(=O)NCc2ccc(N3CCN(C(=O)OC(C)(C)C)CC3)cc2)cc1 | inactive
CCN(c1ccc(C)c(C)c1)S(=O)(=O)c1ccc2c(c1)CCN2C(=O)CCC(=O)O | inactive
CCC(C)(C)n1nnnc1C(c1ccc2ncccc2c1)N1CCN(c2ccc(O)cc2)CC1 (stereo not drawn) | inconclusive [inhibitor, full curve]
CCOc1ccc(N=C/C=C/c2ccccc2)c(O)c1 | inconclusive [inhibitor, single point]
Oc1c(Cl)cc(Cl)cc1/C=N/Nc1ncc(Br)cn1 | inactive
Oc1ccc(Cc2ccccc2Cl)c(O)c1 | inconclusive [inhibitor, partial curve]
Cc1ccc(/C=C/C(=O)NCc2ccccn2)o1 | inconclusive [inhibitor, partial curve]
Cc1ccc2nc(SCC(=O)N3CCN(C(=O)c4ccco4)CC3)[nH]c2c1 | inactive
COC(=O)c1c(C)[nH]c(O)c1C=Nc1ccc(C(C)C)cc1 | inconclusive [inhibitor, single point]

SMILES | Potency
CCCN1C(=O)/C(=C/c2c(N3CCNC(=O)C3CC(=O)OCC)nc3c(C)cccn3c2=O)SC1=S (stereo not drawn) | inactive
Cn1c(=O)[nH]c(=O)c2c1nc(N/N=C/c1ccncc1)n2Cc1ccc(F)cc1 | inconclusive [inhibitor, partial curve]
CCCC(=O)Nc1ccc(C2C(=O)c3ccccc3C2=O)cc1 | inconclusive [inhibitor, partial curve, poor fit]
CC(C)N=c1scc(-c2ccco2)n1/N=C/c1ccc(O)c(O)c1 | inconclusive [inhibitor, single point]
COC(=O)c1ccc(CNCC(=O)Nc2ccc(C(=O)OC)cc2)cc1 | inactive
NC(=S)N/N=C1\c2ccccc2-c2c(C(=O)O)cccc21 | inactive
COc1cccc(C=Nc2ccc3c(c2)OCCO3)c1O | inconclusive [inhibitor, partial curve]
CC(CO)NS(=O)(=O)c1ccc(Br)cc1F (stereo not drawn) | inactive
O=C(NCc1ccccc1)c1cc(C2COCCN2C(=O)OCCF)on1 (stereo not drawn) | inactive
COc1cc(/C=N/NC(=O)C2=NNC(=O)C2C)ccc1O (stereo not drawn) | inactive
Cc1ccc(Nc2nc3nonc3[nH]c2=O)cc1C | inconclusive [inhibitor, full curve]
COC(=O)C(NC(=O)c1ccccc1)=C(C)C | inconclusive [inhibitor, single point]
COCCn1c(C)cc(/C=C(\C#N)C(=O)OCC(=O)Nc2ccc(S(N)(=O)=O)cc2)c1C | inactive
Cc1ccc(C(=O)Nc2sc(C(=O)N(C)C)c(C)c2C#N)cc1 | inactive
COC(=O)Cn1c(CCC(=O)O)ccc1-c1ccccc1 | inconclusive [inhibitor, single point]
COc1ccc(OC)c(NC(=O)CSC2=Nc3ccccc3C3=NC(CCC(=O)NC4CCCCC4)C(=O)N23)c1 (stereo not drawn) | inconclusive [inhibitor, partial curve, poor fit]
O=C(O)c1cc(N2C(=O)C=CC2=O)cc(N2C(=O)C=CC2=O)c1 | inconclusive [inhibitor, partial curve, poor fit]
CC(=NNC(=O)c1ccc(NS(=O)(=O)c2ccc(Br)cc2)cc1)c1cccnc1 | inconclusive [inhibitor, full curve]
Cc1cc(OCC(=O)Nc2cc(S(=O)(=O)N3CCOCC3)ccc2N2CCCC2)ccc1C(C)C | inactive
COC(=O)CSc1nc(C)cc(C)n1 | inconclusive [inhibitor, single point]
O=C(/C=C/c1ccc(F)cc1)NC(=S)NNC(=O)c1cnccn1 | inconclusive [inhibitor, single point]
O=C(O)C(Cc1ccccc1)N=Cc1c(O)c2ccccc2oc1=O (stereo not drawn) | inconclusive [inhibitor, single point]
CCc1ccc(CN(Cc2ccco2)C(=O)c2ccc(C)cc2)cc1 | inactive
